Assay results from a collection of fitness landscapes (doi:10.1126/science.1257360).
This is one part of the list.

B1: PhoQ; a variant is named by its letters at X, in order, P23837 (parent)
chain: MKKLLRLFFPLSLRVRFLLATAAVVLVLSLAYGMVALIGYSVSFDKTTFRLLRGESNLFYTLAKWENNKLHVELPENIDKQSPTMTLIYDENGQLLWAQRDVPWLMKMIQPDWLKSNGFHEIEADVNDTSLLLSGDHSIQQQLQEVREDDDDAEMTHSVAVNVYPATSRMPKLTIVVVDTIPVELKSSYMVWSWFIYVLSANLLLVIPLLWVAAWWSLRPIEALAKEVRELEEHNRELLNPATTRELTSLVRNLNRLLKSERERYDKYRTTLTDLTHSLKTPLXXLQXXLRSLRSEKMSVSDAEPVMLEQISRISQQIGYYLHRASMRGGTLLSRELHPVAPLLDNLTSALNKVYQRKGVNISLDISPEISFVGEQNDFVEVMGNVLDNACKYCLEFVEISARQTDEHLYIVVEDDGPGIPLSKREVIFDRGQRVDTLRPGQGVGLAVAREITEQYEGKIVAGESMLGGARMEVIFGRQHSAPKDE

Variants of: B1
Assay: enrichment ratio after two sorts for PhoP signalling (ratio (wild type AVST 3.29)); higher = more functional
Details: with PhoP (E. coli)

Variant	enrichment ratio
VHRY	≤ 0.25
RAWV	≤ 0.25
DSRW	≤ 0.25
WVWD	≤ 0.25
TTHS	8.9
ASTP	≤ 0.25
IHHS	≤ 0.25
NYVA	≤ 0.25
FGWA	≤ 0.25
PKHF	≤ 0.25
LILY	≤ 0.25
TETN	24.4
FPRF	≤ 0.25
SHQT	≤ 0.25
DRTL	≤ 0.25
YCKH	≤ 0.25
SALF	9.67
LDWQ	≤ 0.25
SSTD	≤ 0.25
FMAL	≤ 0.25
TNCQ	≤ 0.25
QQWC	≤ 0.25
KRQP	≤ 0.25
RYFG	≤ 0.25

Variant	enrichment ratio
VIIW	≤ 0.25
VYHY	≤ 0.25
HWNV	≤ 0.25
KLGQ	≤ 0.25
ICYR	≤ 0.25
AERG	≤ 0.25
RFFG	0.794
QQFM	4.13
ANVV	11.6
TPTS	≤ 0.25
STIQ	14
SPQQ	≤ 0.25
MKHT	≤ 0.25
KHGN	≤ 0.25
YALC	3.77
IYWI	≤ 0.25
LTWY	2.54
NLGK	≤ 0.25
IYEW	≤ 0.25
QHHR	≤ 0.25
NTKV	≤ 0.25
LRFG	≤ 0.25
VKAW	≤ 0.25
KHQP	≤ 0.25

Variant	enrichment ratio
PFNM	≤ 0.25
MDGT	≤ 0.25
AWPG	≤ 0.25
YMTW	≤ 0.25
VAYQ	≤ 0.25
LGRC	≤ 0.25
FFNF	≤ 0.25
RTFE	≤ 0.25
ERWA	≤ 0.25
EIAD	≤ 0.25
PNNL	≤ 0.25
HKHR	≤ 0.25
NPLY	≤ 0.25
WPET	≤ 0.25
FSRA	≤ 0.25
QMAH	≤ 0.25
VMAK	≤ 0.25
MYDP	≤ 0.25
SCIL	0.31
RYRP	≤ 0.25
MKRK	≤ 0.25
HMLI	≤ 0.25
YPKN	≤ 0.25
NSPH	≤ 0.25

Variant	enrichment ratio
MVSP	≤ 0.25
ISTC	≤ 0.25
FQLA	≤ 0.25
NEGS	≤ 0.25
ETDC	≤ 0.25
YWLN	≤ 0.25
HLAN	≤ 0.25
EMEP	≤ 0.25
IQFG	≤ 0.25
WDHH	≤ 0.25
WFKI	≤ 0.25
DNYF	≤ 0.25
YELK	≤ 0.25
HWNM	≤ 0.25
FQLD	0.917
DLGS	≤ 0.25
HFHC	≤ 0.25
WDPI	≤ 0.25
MKMK	≤ 0.25
SIHG	≤ 0.25
DMYM	≤ 0.25
YASQ	≤ 0.25
DGAR	≤ 0.25
LCIK	≤ 0.25

Variant	enrichment ratio
NAAS	≤ 0.25
KIQV	≤ 0.25
KQDM	≤ 0.25
HEEA	≤ 0.25
SIGM	9.86
NKCN	≤ 0.25
LNND	≤ 0.25
EDRY	≤ 0.25
GRFC	≤ 0.25
KICY	≤ 0.25
ENHH	≤ 0.25
MQCD	0.989
HRES	≤ 0.25
SQYG	≤ 0.25
YGCA	0.382
YDSA	≤ 0.25
LMDN	≤ 0.25
QNLA	≤ 0.25
GQWH	≤ 0.25
RIDY	≤ 0.25
GTEH	≤ 0.25
MGAP	≤ 0.25
SACT	14
YDMM	≤ 0.25

Variant	enrichment ratio
FLWQ	≤ 0.25
EHST	≤ 0.25
NFSL	≤ 0.25
GSGW	≤ 0.25
FPLM	≤ 0.25
AEGL	1.47
AFQL	≤ 0.25
FWKK	≤ 0.25
DDCD	≤ 0.25
QTFR	≤ 0.25
EFFM	≤ 0.25
ALIP	≤ 0.25
YAFD	≤ 0.25
VAIQ	≤ 0.25
DWLT	≤ 0.25
KHGY	≤ 0.25
QMNI	9.75
WQGS	≤ 0.25
WWYC	≤ 0.25
SRRP	≤ 0.25
AYWY	≤ 0.25
RCKQ	≤ 0.25
VCEP	≤ 0.25
NQRI	≤ 0.25

Variant	enrichment ratio
KAWY	≤ 0.25
SYSH	≤ 0.25
YKGF	≤ 0.25
DKDM	≤ 0.25
CFVP	≤ 0.25
TMNL	5.04
MCYM	14.1
VWEY	≤ 0.25
IFDI	≤ 0.25
MMVR	≤ 0.25
RYMC	≤ 0.25
LKDN	≤ 0.25
GAKM	≤ 0.25
LNRH	≤ 0.25
MPTD	≤ 0.25
SMKI	≤ 0.25
ADLN	6.6
MFQE	≤ 0.25
SPDR	≤ 0.25
SEFR	≤ 0.25
TMKT	≤ 0.25
LATR	≤ 0.25
MIPP	0.84
FKQQ	≤ 0.25

Variant	enrichment ratio
WSGR	≤ 0.25
HIHL	≤ 0.25
WILI	≤ 0.25
QTDV	7.98
INYN	≤ 0.25
LPHN	≤ 0.25
ANKR	≤ 0.25
YDWK	≤ 0.25
LNLS	≤ 0.25
AFTQ	≤ 0.25
QMLS	≤ 0.25
GNQF	≤ 0.25
NIKC	≤ 0.25
DATM	≤ 0.25
DICG	≤ 0.25
APML	≤ 0.25
QRVI	≤ 0.25
TVHG	0.311
MEHP	≤ 0.25
VYGP	≤ 0.25
EFQK	≤ 0.25
PVEI	≤ 0.25
LLVG	≤ 0.25
LNKR	≤ 0.25

Variant	enrichment ratio
FNTQ	≤ 0.25
FYCW	≤ 0.25
LKPQ	≤ 0.25
WFSR	≤ 0.25
IQGL	≤ 0.25
VCHS	≤ 0.25
PEQY	≤ 0.25
QENE	≤ 0.25
EGDI	≤ 0.25
RQML	≤ 0.25
VYQA	≤ 0.25
PGWK	≤ 0.25
RGPW	≤ 0.25
RKGY	≤ 0.25
LNMY	≤ 0.25
NNCT	≤ 0.25
KFGC	≤ 0.25
AFRQ	≤ 0.25
FSTT	≤ 0.25
ASLA	14.6
QWLY	≤ 0.25
RDMY	≤ 0.25
WAVR	≤ 0.25
SLMI	10.3

Variant	enrichment ratio
RNEL	≤ 0.25
TKAY	8.06
IMFH	≤ 0.25
FMNL	≤ 0.25
IRMK	≤ 0.25
CSFS	≤ 0.25
DQHI	≤ 0.25
WMCH	≤ 0.25
LKNY	≤ 0.25
NIRT	≤ 0.25
EVCC	≤ 0.25
MMCE	≤ 0.25
LWHI	≤ 0.25
KEYR	≤ 0.25
MFNM	≤ 0.25
QYQL	≤ 0.25
DKTD	≤ 0.25
YMCH	0.253
RVIR	≤ 0.25
LDPC	≤ 0.25
NGFI	≤ 0.25
TQKN	≤ 0.25
HPDT	≤ 0.25
RIWN	≤ 0.25

Variant	enrichment ratio
KKRR	≤ 0.25
THPW	≤ 0.25
IRHP	≤ 0.25
HTIP	≤ 0.25
GCGW	≤ 0.25
RKLD	≤ 0.25
PDEM	≤ 0.25
FHTT	≤ 0.25
HFRL	≤ 0.25
YFAV	≤ 0.25
PKDL	≤ 0.25
HKNT	≤ 0.25
TVEP	≤ 0.25
FALV	7.53
PVDL	≤ 0.25
LPLN	≤ 0.25
GMHQ	≤ 0.25
YLYF	≤ 0.25
KARN	≤ 0.25
IHTP	≤ 0.25
FEEP	≤ 0.25
NTRC	2.86
DGML	≤ 0.25
VLYG	≤ 0.25

Variant	enrichment ratio
SHLS	0.38
YQSG	≤ 0.25
KVNV	≤ 0.25
EVNF	≤ 0.25
PWKS	≤ 0.25
QEFL	2.95
EYKK	≤ 0.25
PWRS	≤ 0.25
YPNP	≤ 0.25
GDFE	≤ 0.25
LLPF	≤ 0.25
MNIP	≤ 0.25
KRWF	≤ 0.25
MCMW	≤ 0.25
YKFL	≤ 0.25
HHRT	≤ 0.25
TNFI	≤ 0.25
HSSK	≤ 0.25
IGNI	≤ 0.25
KMVS	≤ 0.25
NWRI	≤ 0.25
EIET	≤ 0.25
MTMF	8.2
TLYK	≤ 0.25

Variant	enrichment ratio
TIIP	≤ 0.25
VEWQ	≤ 0.25
SAWR	≤ 0.25
MQSW	≤ 0.25
THSH	12.3
SPCD	≤ 0.25
MEEA	≤ 0.25
AAFY	≤ 0.25
HWMY	≤ 0.25
KYEF	≤ 0.25
LIRH	≤ 0.25
GWAD	≤ 0.25
SRNV	≤ 0.25
ISCF	≤ 0.25
VDYK	≤ 0.25
AGYH	0.299
MADY	≤ 0.25
DEFF	≤ 0.25
